Experimental findings from PubChem BioAssay AID360 (National Center for Advancing Translational Sciences (NCATS), 2006) are described below.

The structures appear in SMILES notation. Hit rate of the full screen: of about 48,000 compounds, about 550 (1.1%) were called active. Inconclusive results (about 4%) are left out. Cut-off read from the data, not from the text of the source: active = potency below about 15 µM; inconclusive = mostly about 16 µM to 33 µM; inactive = weaker than that. Some of the results follow.
Potency is the fitted concentration of half-maximal effect.

The target in the experiment is Lysosomal acid glucosylceramidase (Homo sapiens) (UniProt P04062). Put plainly: Glucocerebrosidase.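 Note: the screen sought inhibitors.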 The note with it: purified enzyme, resorufin glucoside fluorescence (screen aimed at inhibitors), 20 min. Summed up: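 Compounds titrated against 0.2 nM normal enzyme, 30 uM resorufin beta-D-glucopyranoside substrate, citrate/phosphate buffer with taurocholate and tween-20, pH 5.9. Reaction ran 20 min at room temperature; fluorescence (Ex 548/Em 600) gave AC50.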
Sequence of UniProt P04062 (P04062 whole entry, looked up): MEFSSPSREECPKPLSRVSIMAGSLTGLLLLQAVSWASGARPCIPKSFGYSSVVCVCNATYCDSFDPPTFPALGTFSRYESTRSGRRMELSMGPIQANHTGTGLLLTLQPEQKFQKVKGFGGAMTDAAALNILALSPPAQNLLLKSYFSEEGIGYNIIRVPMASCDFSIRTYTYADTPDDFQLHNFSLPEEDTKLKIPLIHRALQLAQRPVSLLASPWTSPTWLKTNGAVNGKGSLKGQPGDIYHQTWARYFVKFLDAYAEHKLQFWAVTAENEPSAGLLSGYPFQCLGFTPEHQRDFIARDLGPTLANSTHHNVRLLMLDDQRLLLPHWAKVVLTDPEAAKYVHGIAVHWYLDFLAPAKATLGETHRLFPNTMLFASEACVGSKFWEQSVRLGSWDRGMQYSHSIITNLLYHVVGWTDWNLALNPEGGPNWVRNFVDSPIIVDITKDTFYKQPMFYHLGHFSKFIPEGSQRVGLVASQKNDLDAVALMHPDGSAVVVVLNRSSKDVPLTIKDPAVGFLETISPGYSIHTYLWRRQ
With `CCSc1nc(C)c(CC)c(C)c1C(N)=O`, the Potency is inactive: > 76.9 µM.

For `Cc1noc(C)c1CSc1nc2[nH]ncc2c(=O)n1-c1ccccc1`, the Potency is inactive: > 76.9 µM. For `O=C1c2oc3ccc(F)cc3c(=O)c2C(c2ccccc2)N1CC1CCCO1` (centres undefined), the Potency was inactive: > 76.9 µM. The value for `O=C(CCCn1c(=O)oc2ccccc21)N1CCc2ccccc2C1` was inactive: > 76.9 µM; that for `CC(C)(C)c1cc(CN2CCOCC2)c(C(=O)O)o1` was inactive: > 76.9 µM; that for `O=C(c1ccc(Cn2c(=O)[nH]c3ccccc3c2=O)cc1)N1CCN(c2ccc(F)cc2)CC1` was inactive: > 76.9 µM. Turning to `CCCCN(C)S(=O)(=O)c1cc(Br)cc2c1N(C(=O)C1CC1)CC2`, the Potency is inactive: > 76.9 µM. The value for `CC(C)CN(C(=O)c1ccc(=O)n(C)n1)c1nc2ccccc2s1` was inactive: > 76.9 µM; that for `CCOC(=O)CC(=O)CSC1=C(C#N)C(c2ccccc2OC)CC(=O)N1` (centres undefined) was inactive: > 76.9 µM.

Regarding `COc1ccc(-c2noc(N(C)CC(=O)Nc3cccc(C(F)(F)F)c3)n2)cc1`, the Potency was inactive: > 76.9 µM. Regarding `Cc1cc(NC(=O)CCC(=O)N(CC2CCCO2)C(C(=O)NC2CCCC2)c2ccccc2C)no1` (centres undefined), the Potency is inactive: > 76.9 µM. In the case of `O=S1(=O)CCN=C2SC3=C(CCCC3)N21` it was inactive: > 76.9 µM; in that of `O=C(O)c1ccccc1NS(=O)(=O)c1ccc2c3c(cccc13)C(=O)N2`, inactive: > 76.9 µM; in that of `COCCn1nnnc1C(c1ccc(OC)cc1OC)N1CCN(c2ccccc2)CC1` (centres undefined), inactive: > 76.9 µM. Take `O=c1c2c([nH]c3ccc(Br)cc13)CCCC2`: the Potency entry is “inactive”.

With `COc1ccc(C(=O)NC2CCN(C(=O)NC3CCCCC3)CC2)cc1`, the Potency was inactive: > 76.9 µM. In the case of `Fc1ccc(NCc2nnc(SCc3nnc(-c4ccccc4)o3)n2CC2CCCO2)cc1` (centres undefined), the Potency was inactive: > 76.9 µM. As to `Cc1nc2ccc(S(=O)(=O)N(C)CC(=O)N3CCc4ccccc4C3)cc2s1`, the Potency is inactive: > 76.9 µM. `Cc1cccc(-n2nnc(C(=O)N3CCc4ccccc4C3)c2N)c1`: the Potency was inactive: > 76.9 µM. On to `O=C(CSc1nnc(C23CC4CC(CC(C4)C2)C3)o1)Nc1ccc(N2CCOCC2)c(Cl)c1`, for which the Potency entry was “inactive”.

With `Cc1ccc(S(=O)(=O)Nc2cc(C)nn2-c2ccccc2)cc1`, the Potency was inactive: > 76.9 µM. Regarding `Cc1occc1-c1nnc(SCC(=O)c2ccc(F)cc2)o1`, the Potency is inactive: > 76.9 µM. `Cc1cc(C)nc(N2CCC(C(=O)O)CC2)n1`: the Potency is inactive: > 76.9 µM. As for `O=C(Nc1ccccc1C(=O)N1CCOCC1)c1cccc(S(=O)(=O)N2CCCC2)c1`, the Potency is inactive: > 76.9 µM. For the compound `CCCN(C(=O)CSc1nnc(-c2ccoc2C)n1N)C1CCS(=O)(=O)C1` (centres undefined), the Potency was inactive: > 76.9 µM. Take `Cc1ccc(NC(=O)CCNS(=O)(=O)c2ccc3c(c2)oc(=O)n3C)cc1C`: the Potency is inactive: > 76.9 µM. As to `CCOc1ccc(-c2nc(N)nc(C)c2-c2ccc(OC)c(OC)c2)c(O)c1`, the Potency is inactive: > 76.9 µM. In the case of `CCn1cc(C(=O)NCc2ccc3c(c2)OCO3)c(=O)c2cc(F)c(N3CCN(C)CC3)cc21` it was inactive: > 76.9 µM; in that of `O=C(CSc1nc2c(c(=O)n1-c1ccc(Cl)cc1)SCC2)NCC1CCCO1` (centres undefined), inactive: > 76.9 µM. With `COc1cc(C(=O)OCCN2CCOCC2)ccc1O`, the Potency was inactive: > 76.9 µM. Regarding `COCCCN1C(=O)C(=O)/C(=C(/O)c2ccc(OC)cc2)C1c1cccc(OC)c1` (centres undefined), the Potency is inactive: > 76.9 µM.

With `O=C(COc1ccc(Cl)cc1Cl)NC(=O)N1CCCCC1`, the Potency is inactive: > 76.9 µM. Take `CCCn1c(SCC(=O)N2CCN(c3ccc(OC)cc3)CC2)nc2c1c(=O)n(C)c(=O)n2C`: the Potency was inactive: > 76.9 µM. For `Cc1ncn(C23CC4CC(CC(O)(C4)C2)C3)n1`, the Potency was inactive: > 76.9 µM. `CCOc1ccccc1N1CCN(Cc2cccc(OC)c2O)CC1`: the Potency was inactive: > 76.9 µM. For `C=CCN=C1SCC(=O)N1S(=O)(=O)c1ccc(C)cc1`, the Potency is inactive: > 76.9 µM.

Consider `O=C(c1cccc(F)c1)N1CCc2ccccc2C1`, for which the Potency was inactive: > 76.9 µM. `Cc1cc(C(=O)Nc2sc3c(c2C#N)CCC3)no1`: the Potency is inactive: > 76.9 µM. For the compound `COc1ccc(N2C3=[N+](CCCC3)CC2(C)O)cc1` (centres undefined), the Potency was inactive: > 76.9 µM. As to `c1cc(-c2nnc3n2CCC3)[nH]n1`, the Potency was inactive: > 76.9 µM.

As to `O=C(CCn1c(=S)[nH]c2cc3c(cc2c1=O)OCO3)N1CCN(c2ccccn2)CC1`, the Potency was inactive: > 76.9 µM. In the case of `CCOC(=O)c1ccc(CC(=O)c2oc3cc(O)ccc3c2C)o1`, the Potency is inactive: > 76.9 µM. With `CCOC(=O)C1CCN(C(=O)COC(=O)c2ccc(Br)o2)CC1`, the Potency is inactive: > 76.9 µM. As for `Cc1cc(C)nc(SCC(=O)NC2=NC(=O)C(C)S2)n1` (centres undefined), the Potency was inactive: > 76.9 µM. `COc1ccc(NC(=O)CSc2nc3ccccc3c(=O)n2-c2ccc3c(c2)OCO3)c(OC)c1`: the Potency was inactive: > 76.9 µM.

For the compound `CCCCN(CCCC)S(=O)(=O)c1ccc(C(=O)Nc2nnc(CSC)o2)cc1`, the Potency is inactive: > 76.9 µM. For `CCOC(=O)C1=C(C)NC2=C(C(=O)CC(c3ccc(OC)c(OC)c3)C2)C1c1ccc(C)o1` (centres undefined), the Potency is inactive: > 76.9 µM. Consider `Cc1coc(NC(=O)CSc2nc(-c3ccncc3)cc(C(F)(F)F)c2C#N)n1`, for which the Potency was inactive: > 76.9 µM. As for `CC(C)c1nnc(NC(=O)c2c(O)c3cccc4c3n(c2=O)CCC4)s1`, the Potency was inactive: > 76.9 µM.

As to `Cc1csc(SCc2c(C(=O)O)oc3ccccc23)n1`, the Potency is inactive: > 76.9 µM.

Consider `CCOc1cccc(-c2nnc3sc(COc4ccc(Cl)cc4)nn23)c1`, for which the Potency was inactive: > 76.9 µM. For the compound `CCOC(=O)C1CCCN(CC(=O)Nc2c(C(=O)OC)[nH]c3ccc(Cl)cc23)C1` (centres undefined), the Potency was inactive: > 76.9 µM. The value for `CCCC(=O)Nc1ccc(N2CCN(C(=O)CCC)CC2)cc1` was inactive: > 76.9 µM. Turning to `COc1ccc(OC)c(NC(=O)Cn2cc(C#N)c3ccccc32)c1`, the Potency was inactive: > 76.9 µM.

In the case of `C=CCOc1ccccc1CNn1nnnc1N`, the Potency is inactive: > 76.9 µM.

For the compound `CCCCCn1c(CCNC(=O)c2cccs2)nc2ccccc21`, the Potency was inactive: > 76.9 µM. As for `Cc1cc(C(=O)CSCc2nnc3n(CCC(C)C)c(=O)c4ccccc4n23)c(C)n1C`, the Potency is inactive: > 76.9 µM.

`CCOC(=O)CN1C(=O)C(O)(c2c(C)[nH]c3ccccc23)c2ccccc21` (centres undefined): the Potency was inactive: > 76.9 µM. Take `Cn1c(NCc2ccccc2)cc(=O)n(C)c1=O`: the Potency was inactive: > 76.9 µM. Turning to `N#CCSc1nnc(C2CCCCC2)n1-c1ccccc1`, the Potency is inactive: > 76.9 µM. The value for `COc1ccc(OC)c(C2C3=C(CCCC3=O)Nc3nc4ccccc4n32)c1` (centres undefined) was inactive: > 76.9 µM. In the case of `c1ccc2c(-c3nc(C4CCCCC4)no3)cc(-c3ccncc3)nc2c1` it was inactive: > 76.9 µM; in that of `COCCCN1C(=O)C(=O)/C(=C(/O)c2ccc(OCC(C)C)cc2)C1c1cccnc1` (centres undefined), inactive: > 76.9 µM. The value for `O=C(CCc1ccccc1)Nc1ccc(Cl)cn1` was inactive: > 76.9 µM; that for `Cn1c(=O)[nH]c(=O)c2c1nc(Br)n2CC(O)COCc1ccccc1` (centres undefined) was inactive: > 76.9 µM. For `CCN(CC)S(=O)(=O)c1ccc(F)c(C(=O)NCCCN2CCOCC2)c1`, the Potency is inactive: > 76.9 µM. Consider `Cn1nccc1C(=O)OCC(=O)Nc1nc(-c2ccccc2)cs1`, for which the Potency is inactive: > 76.9 µM. As for `O=C(CCC1CCCC1)N1CCN(C(=O)C2CC2)CC1`, the Potency is inactive: > 76.9 µM. With `O=C(O)c1cccc(S(=O)(=O)NCc2cccs2)c1`, the Potency was inactive: > 76.9 µM.

Regarding `CC(C)CCN(C(=O)CNC(=O)c1ccco1)C(C(=O)NC1CCCCC1)c1ccco1` (centres undefined), the Potency was inactive: > 76.9 µM. In the case of `Cc1ccccc1Cn1ccc(NC(=O)CCSc2nc(-c3ccco3)cc(C(F)(F)F)n2)n1` it was inactive: > 76.9 µM; in that of `CCC(C)(C)n1nnnc1C(C(C)C)N(CCCO)Cc1cc2cc(C)ccc2[nH]c1=O` (centres undefined), inactive: > 76.9 µM.

As to `O=C(CCCC(=O)N(CC(=O)NC1CCCC1)Cc1ccccc1)Nc1ccccn1`, the Potency was inactive: > 76.9 µM.

On to `CCCN1CN(Cc2ccco2)c2nc3ccccc3n2C1`, for which the Potency was inactive: > 76.9 µM. In the case of `COCCNC(=O)Cn1nc(C(F)(F)F)c(Cl)c1C`, the Potency was inactive: > 76.9 µM. The value for `CCOC(=O)N1CCN(C2=CC(=O)OC23CCCCC3)CC1` was inactive: > 76.9 µM; that for `CCn1c(SCC(=O)Nc2ccc(C(=O)OC)cc2)nnc1-c1cccs1` was inactive: > 76.9 µM. Turning to `O=C(NCCN1CCN(Cc2ccccc2)CC1)C1CC(=O)N(C2CCCC2)C1` (centres undefined), the Potency is inactive: > 76.9 µM. With `CSCCC(NC(=O)c1occc1C)C(=O)O` (centres undefined), the Potency was inactive: > 76.9 µM. Take `COc1cccc(-c2nnc(SCc3ccc(C#N)cc3)n2Cc2ccco2)c1`: the Potency was inactive: > 76.9 µM.

In the case of `COc1ccccc1OCc1ccc(C(=O)Nc2ccncc2)o1`, the Potency was active: 13.2 µM. For `O=C(c1ccc2c(c1)OCCO2)N(c1ccccn1)C1CCCCC1`, the Potency was inactive: > 76.9 µM. Turning to `CCN(CC)CCCNC(=O)N[C@@H](Cc1ccccc1)C(=O)O`, the Potency is inactive: > 76.9 µM.

With `CCOC(=O)c1ccc(CSc2nnc(N)s2)cc1`, the Potency was inactive: > 76.9 µM.

For the compound `COc1cccc(NC(=O)NC2(C(F)(F)F)Oc3ccccc3O2)c1`, the Potency is inactive: > 76.9 µM. On to `O=C(NCC(=O)N(CC1CCCO1)C(C(=O)NC1CCCC1)c1ccc(F)cc1)c1ccco1` (centres undefined), for which the Potency is inactive: > 76.9 µM. In the case of `O=C(c1ccc(F)cc1F)N(Cc1ccccn1)Cc1ccco1`, the Potency was inactive: > 76.9 µM. For `O=C(CN1C(=O)CSC1=O)Nc1ccccc1N1CCOCC1`, the Potency is inactive: > 76.9 µM. As for `CC(=O)c1c(C)[nH]c(C(=O)Nc2ccc3c(c2)OCCO3)c1C`, the Potency is inactive: > 76.9 µM.
